Experimental data taken from PubChem BioAssay AID651582 (Sanford-Burnham Center for Chemical Genomics, 2012).
The list shows a part of the results. The main result of the screen is listed elsewhere. These columns were measured beside it and carry no call. Most of these compounds were active or inconclusive in the main read-out, so they are no random draw.

Assay: inhibitors of triacylglycerol accumulation, primary screen, cell-based, uHTS, fluorescence, H9c2 (AID 651582)
Details: H9c2 cells, Nile Red lipid (TAG) fluorescence; measured here:; at 12.5 µM; cells loaded with 200 µM oleic acid

Question: For `COc1ccc(CC(N)c2csc(NC(=O)c3cccc(OC(F)(F)F)c3)n2)cc1` (stereo not given), which DAPI nuclei signal change (viability), lower = more cytotoxic is on record?
Answer: 13.9%

Question: With `C/C(=N\Nc1nc2ccccc2nc1C)c1ccccc1O` as the molecule, how does the DAPI nuclei signal change (viability), lower = more cytotoxic read?
Answer: -17%

Question: Which DAPI nuclei signal change (viability), lower = more cytotoxic does the source give for `N#C/C(=C\c1ccc(OC(F)F)cc1)C(=O)N1CCCCC1` here?
Answer: -21.6%

Question: For `COc1cccc(Nc2nnc(SCc3cc([N+](=O)[O-])cc4c3OCOC4)s2)c1`, which DAPI nuclei signal change (viability), lower = more cytotoxic is on record?
Answer: -9.85%

Question: Which DAPI nuclei signal change (viability), lower = more cytotoxic does the source give for `COc1cc(OC)c2cc(C(=O)N/N=C/c3cccc(OC)c3O)[nH]c2c1` here?
Answer: -16%

Question: With `CCN(CC)CCCN(C(=O)c1cccs1)c1nc(-c2ccc(OC)cc2)cs1` as the molecule, how does the DAPI nuclei signal change (viability), lower = more cytotoxic read?
Answer: 19.3%

Question: Which DAPI nuclei signal change (viability), lower = more cytotoxic does the source give for `CC(C)(C)c1ccc(Cn2c(=N)n(CC(O)c3ccco3)c3ccccc32)cc1` (stereo not given) here?
Answer: -24.8%

Question: Which DAPI nuclei signal change (viability), lower = more cytotoxic does the source give for `CCc1c(C2(O)CCCCC2)[nH]c2cnccc12` here?
Answer: -6.55%

Question: Which DAPI nuclei signal change (viability), lower = more cytotoxic does the source give for `Cc1ccc2nc(NC(=O)CN(C)S(=O)(=O)c3cccc4nsnc34)sc2c1` here?
Answer: -26.4%

Question: For `COc1cccc(-c2nc(-c3ccc(NC(=O)Cc4ccccc4OC)cc3)no2)c1`, which DAPI nuclei signal change (viability), lower = more cytotoxic is on record?
Answer: -5%

Question: For `CCCCSc1nc2ccc(Nc3nc(N4CCOCC4)nc(N4CCOCC4)n3)cc2s1`, which DAPI nuclei signal change (viability), lower = more cytotoxic is on record?
Answer: 13.1%

Question: With `C[C@H]1CN([C@@H](C)CO)C(=O)Cc2cc(NC(=O)CCC(F)(F)F)ccc2O[C@H]1CN(C)S(=O)(=O)c1ccc(Cl)cc1` as the molecule, how does the DAPI nuclei signal change (viability), lower = more cytotoxic read?
Answer: -38.5%

Question: With `COc1cc2c(cc1OC)CN(C(=S)Nc1ccccc1Cl)CC2` as the molecule, how does the DAPI nuclei signal change (viability), lower = more cytotoxic read?
Answer: -45.3%

Question: Which DAPI nuclei signal change (viability), lower = more cytotoxic does the source give for `CCCCCc1cc(=O)oc2c(C(CCN3CCN(c4ccccc4)CC3)c3ccc(N(C)C)cc3)c(OC)cc(OC)c12` (stereo not given) here?
Answer: -2.49%

Question: For `COc1cc(-c2noc(C)c2C#Cc2ccccn2)cc(OC)c1OC`, which DAPI nuclei signal change (viability), lower = more cytotoxic is on record?
Answer: -34.5%

Question: With `C[C@H](O)[C@@H]1CN2CCc3c([nH]c4ccc(-c5ccc6c(c5)OCO6)cc34)[C@@H]2C[C@@H]1N(C)C(=O)Nc1ccc(F)cc1` as the molecule, how does the DAPI nuclei signal change (viability), lower = more cytotoxic read?
Answer: -41.8%

Question: For `Cc1cccc(NC(=O)C(C)Sc2nc3ccccc3c(=O)n2CCCN2CCOCC2)c1` (stereo not given), which DAPI nuclei signal change (viability), lower = more cytotoxic is on record?
Answer: -10.8%

Question: With `Cn1nnnc1Sc1ncnc2scc(-c3ccc(Br)cc3)c12` as the molecule, how does the DAPI nuclei signal change (viability), lower = more cytotoxic read?
Answer: -25%

Question: Which DAPI nuclei signal change (viability), lower = more cytotoxic does the source give for `CCOc1ccc(OCC)c(NC(=O)CN(c2ccc(C)cc2)S(=O)(=O)c2c(C)noc2C)c1` here?
Answer: -3.41%

Question: With `COC(=O)c1ccc(/C=C/c2c(-c3ccsc3)oc3ccc(N4CCOCC4)cc23)cc1` as the molecule, how does the DAPI nuclei signal change (viability), lower = more cytotoxic read?
Answer: -5.05%

Question: Which DAPI nuclei signal change (viability), lower = more cytotoxic does the source give for `COc1ccc(NC(=O)N(C)[C@H]2C[C@H]3c4[nH]c5ccc(-c6ccc7c(c6)OCO7)cc5c4CCN3C[C@H]2[C@H](C)O)cc1` here?
Answer: -9.61%

Question: With `COc1ccc(C[C@H]2CN3C(=NC[C@@H]3Cc3ccc(O)cc3)N2CCNC(=O)c2ccc(C)c(Br)c2)cc1` as the molecule, how does the DAPI nuclei signal change (viability), lower = more cytotoxic read?
Answer: -4.44%

Question: For `COc1cccc(C2c3cc4c(cc3OC(NNC(N)=O)C2C)OCO4)c1O` (stereo not given), which DAPI nuclei signal change (viability), lower = more cytotoxic is on record?
Answer: -34.3%

Question: Which DAPI nuclei signal change (viability), lower = more cytotoxic does the source give for `CC1(C)CCCN(Cc2c(O)ccc3c(=O)c(-c4nc5ccccc5s4)c(N)oc23)C1` here?
Answer: 27.9%

Question: With `COc1cc2ccccc2cc1C(=O)N/N=C/c1cccs1` as the molecule, how does the DAPI nuclei signal change (viability), lower = more cytotoxic read?
Answer: -45.4%
